Assay results taken from patent publication US11746155B2, “Cannabinoid receptor type 1 (CB1) binding proteins and uses thereof” (Takeda Pharmaceutical Company Limited, priority 2018, dated 2023).

Target: T1, CB1 (Homo sapiens, UniProt P21554)
T1 construct: host or cells: cAMP Hunter CHO-K1 CNR1 Gi cell line (CHO-K1)
Experiment: cAMP assay for inverse agonism, cAMP Hunter CHO-K1 CNR1 Gi cells, forskolin only
Assay type: cell-based
Conditions: no agonist
From the text: The dotted purple line represents the level of cAMP released upon treatment with forskolin, the maximal amount of cAMP in the assay. The red line corresponds to CB1 small molecule agonist CP-55,940 used as control for the assay.
The humanized anti-CB1 variants were reevaluated for their ability to bind CHO-huCB-1 cells and compared to mouse parental clones M5 and M7 (FIGS. 7A and 7B) to ensure that binding was retained. The assay conditions used were similar to those described in Example 5. Following binding analysis, test variants were also evaluated for function as antagonists in the cAMP and pERK assays according to Examples 3 and 4 (FIGS. 8A, 8B, 9A, and 9B) to ensure that binding and activity was maintained after humanization. All clones retained their binding and antagonist activity.

T1 sequence (P21554 whole entry): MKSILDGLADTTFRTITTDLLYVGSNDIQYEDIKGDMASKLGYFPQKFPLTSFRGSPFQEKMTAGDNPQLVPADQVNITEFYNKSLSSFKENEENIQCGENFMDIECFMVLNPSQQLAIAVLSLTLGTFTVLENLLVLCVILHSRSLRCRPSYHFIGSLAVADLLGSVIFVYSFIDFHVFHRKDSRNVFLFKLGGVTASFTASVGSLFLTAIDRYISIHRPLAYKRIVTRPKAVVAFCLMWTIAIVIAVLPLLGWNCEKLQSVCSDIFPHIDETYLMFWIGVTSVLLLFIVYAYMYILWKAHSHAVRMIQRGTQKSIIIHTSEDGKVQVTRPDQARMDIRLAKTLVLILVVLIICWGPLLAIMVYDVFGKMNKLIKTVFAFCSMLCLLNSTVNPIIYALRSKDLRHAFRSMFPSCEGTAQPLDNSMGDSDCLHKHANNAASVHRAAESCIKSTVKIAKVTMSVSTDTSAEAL

B1: M7-H5: humanized anti-CB1 antibody variant of clone M7, human IgG1 backbone (antibody)
heavy: QVQLVQSGAEVVKPGASVKLSCKASSYTFTRYWMNWVKQAPGQGLEWIGMIDPYDSETHYNQKFKDKAILTVDKSTSTAYMELSTLRSEDTAVYFCARSQPRYYAMDYWGQGTSVTVSS[human IgG1 constant region with changes skipped]
light: DIQMTQSPSSLSASLGDRVTLTCRASQEISGFLSWLQLRPDGTIKRLIYAASSLDSGVPSRFRGSWSGTDYTLTISSLQSEDFADYYCLQYSSYPYTFGGGTKLEIKRTVAAPSVFIFPPSDEQLKSGTASVVCLLNNFYPREAKVQWKVDNALQSGNSQESVTEQDSKDSTYSLSSTLTLSKADYEKHKVYACEVTHQGLSSPVTKSFNRGEC
Inverse agonism activity in cAMP assay: inverse agonism
